{"source": "paper PMC7881268", "binders": {"B1": {"name": "HILPDA-mEGFP (hypoxia-inducible lipid droplet-associated fused to mEGFP) (protein, UniProt Q9JLS0 1-64)", "chain": "MKFMLNLYVLGIMLTLLSIFVRVMESLGGLLESPLPGSSWITRGQLANTQPPKGLPDHPSRGVQ"}, "B2": {"name": "HILPDA-mCherry (protein, UniProt Q9JLS0 1-64)", "chain": "B1 chain"}}, "key": {"[1]": {"target": "T1, DGAT1-mCherry (diacylglycerol acyltransferase 1 fused to mCherry) (mouse) (UniProt Q9Z2A7)", "T1 sequence": "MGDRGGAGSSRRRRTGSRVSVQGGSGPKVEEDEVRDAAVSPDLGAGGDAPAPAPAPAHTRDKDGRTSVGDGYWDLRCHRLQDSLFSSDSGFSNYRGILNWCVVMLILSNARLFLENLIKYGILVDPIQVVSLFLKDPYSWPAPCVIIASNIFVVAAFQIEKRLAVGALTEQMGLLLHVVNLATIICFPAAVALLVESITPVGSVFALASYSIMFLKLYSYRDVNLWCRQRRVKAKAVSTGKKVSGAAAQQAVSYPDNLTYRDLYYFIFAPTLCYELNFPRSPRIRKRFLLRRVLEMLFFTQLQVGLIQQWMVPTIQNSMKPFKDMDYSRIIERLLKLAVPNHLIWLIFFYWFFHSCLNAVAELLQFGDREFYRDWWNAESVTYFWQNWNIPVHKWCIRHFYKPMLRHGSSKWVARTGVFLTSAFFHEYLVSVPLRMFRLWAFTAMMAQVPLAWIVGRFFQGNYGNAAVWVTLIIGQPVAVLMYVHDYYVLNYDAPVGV", "assay": "FRET or BRET; FRET-FLIM repeated in fixed HepG2 cells co-expressing donor HILPDA-mEGFP and mCherry acceptor; donor fluorescence lifetime"}, "[2]": {"target": "T2, DGAT2-mCherry (diacylglycerol acyltransferase 2 fused to mCherry) (mouse) (UniProt Q9DCV3)", "T2 sequence": "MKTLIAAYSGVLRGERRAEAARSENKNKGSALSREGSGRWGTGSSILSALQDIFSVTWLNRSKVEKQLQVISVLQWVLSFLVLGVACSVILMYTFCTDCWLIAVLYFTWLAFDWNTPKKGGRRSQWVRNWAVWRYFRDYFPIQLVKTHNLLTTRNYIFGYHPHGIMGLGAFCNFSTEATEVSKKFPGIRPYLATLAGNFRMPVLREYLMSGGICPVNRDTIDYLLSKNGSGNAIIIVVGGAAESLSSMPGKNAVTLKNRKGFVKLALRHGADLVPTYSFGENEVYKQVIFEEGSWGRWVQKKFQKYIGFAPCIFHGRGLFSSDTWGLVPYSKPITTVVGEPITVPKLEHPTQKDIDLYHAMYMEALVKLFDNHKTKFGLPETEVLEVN", "assay": "FRET or BRET; FRET-FLIM repeated in fixed HepG2 cells co-expressing donor HILPDA-mEGFP and mCherry acceptor; donor fluorescence lifetime"}, "PLIN3-mCherry (mouse)": {"target": "T3, PLIN3-mCherry (mouse) (UniProt Q9DBG5)", "T3 sequence": "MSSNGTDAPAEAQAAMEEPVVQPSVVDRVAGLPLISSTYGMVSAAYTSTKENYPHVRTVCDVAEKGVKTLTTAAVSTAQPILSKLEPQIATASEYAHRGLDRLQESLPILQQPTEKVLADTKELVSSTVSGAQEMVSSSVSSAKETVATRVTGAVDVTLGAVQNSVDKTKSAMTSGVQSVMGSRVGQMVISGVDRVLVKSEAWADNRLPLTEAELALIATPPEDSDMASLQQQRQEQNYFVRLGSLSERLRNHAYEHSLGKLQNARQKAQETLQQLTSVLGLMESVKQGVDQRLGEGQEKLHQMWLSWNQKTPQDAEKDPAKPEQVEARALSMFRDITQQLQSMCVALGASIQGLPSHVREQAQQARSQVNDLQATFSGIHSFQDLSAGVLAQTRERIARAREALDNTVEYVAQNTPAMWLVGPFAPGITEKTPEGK", "assay": "FRET or BRET; FRET-FLIM in live HepG2 cells co-transfected with donor (mEGFP/EGFP fusion) and acceptor (mCherry fusion), lipid loaded overnight with 0.8 mM oleate:palmitate (2:1); donor fluorescence lifetime with and without acceptor"}, "PLIN2-mCherry (mouse)": {"target": "T4, PLIN2-mCherry (mouse) (UniProt P43883)", "T4 sequence": "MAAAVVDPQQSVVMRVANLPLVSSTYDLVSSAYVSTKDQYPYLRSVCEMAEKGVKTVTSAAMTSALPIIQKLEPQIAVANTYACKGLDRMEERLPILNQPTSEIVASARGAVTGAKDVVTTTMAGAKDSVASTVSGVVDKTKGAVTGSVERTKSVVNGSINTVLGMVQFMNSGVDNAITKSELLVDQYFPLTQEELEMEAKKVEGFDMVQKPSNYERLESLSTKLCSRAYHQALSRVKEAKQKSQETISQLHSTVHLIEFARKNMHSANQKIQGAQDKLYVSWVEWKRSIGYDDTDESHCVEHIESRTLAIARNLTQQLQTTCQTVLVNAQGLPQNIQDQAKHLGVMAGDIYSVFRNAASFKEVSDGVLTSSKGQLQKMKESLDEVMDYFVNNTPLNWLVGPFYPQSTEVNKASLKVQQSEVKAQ", "assay": "FRET or BRET; FRET-FLIM in live HepG2 cells co-transfected with donor (mEGFP/EGFP fusion) and acceptor (mCherry fusion), lipid loaded overnight with 0.8 mM oleate:palmitate (2:1); donor fluorescence lifetime with and without acceptor"}, "[3]": {"target": "T1, DGAT1-mCherry (diacylglycerol acyltransferase 1 fused to mCherry) (mouse)", "assay": "FRET or BRET; FRET-FLIM in live HepG2 cells co-transfected with donor (mEGFP/EGFP fusion) and acceptor (mCherry fusion), lipid loaded overnight with 0.8 mM oleate:palmitate (2:1); donor fluorescence lifetime with and without acceptor"}, "[4]": {"target": "T2, DGAT2-mCherry (diacylglycerol acyltransferase 2 fused to mCherry) (mouse)", "assay": "FRET or BRET; FRET-FLIM in live HepG2 cells co-transfected with donor (mEGFP/EGFP fusion) and acceptor (mCherry fusion), lipid loaded overnight with 0.8 mM oleate:palmitate (2:1); donor fluorescence lifetime with and without acceptor"}, "GPAT4-EGFP (mouse)": {"target": "T5, GPAT4-EGFP (mouse) (UniProt Q8K2C8)", "T5 sequence": "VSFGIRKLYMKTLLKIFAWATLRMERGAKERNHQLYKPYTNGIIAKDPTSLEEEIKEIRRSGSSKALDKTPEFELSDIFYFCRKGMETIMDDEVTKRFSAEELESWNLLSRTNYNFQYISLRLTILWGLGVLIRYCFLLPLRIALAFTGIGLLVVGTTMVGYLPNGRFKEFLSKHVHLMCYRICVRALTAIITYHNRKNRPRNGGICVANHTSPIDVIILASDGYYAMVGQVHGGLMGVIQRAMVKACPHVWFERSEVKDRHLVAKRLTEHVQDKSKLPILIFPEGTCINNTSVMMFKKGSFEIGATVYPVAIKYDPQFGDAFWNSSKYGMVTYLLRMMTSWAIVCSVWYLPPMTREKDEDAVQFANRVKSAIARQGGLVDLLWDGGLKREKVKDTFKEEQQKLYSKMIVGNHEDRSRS", "assay": "FRET or BRET; FRET-FLIM in live HepG2 cells co-transfected with donor (mEGFP/EGFP fusion) and acceptor (mCherry fusion), lipid loaded overnight with 0.8 mM oleate:palmitate (2:1); donor fluorescence lifetime with and without acceptor"}, "GPAT1-EGFP (mouse)": {"target": "T6, GPAT1-EGFP (mouse) (UniProt Q61586)", "T6 sequence": "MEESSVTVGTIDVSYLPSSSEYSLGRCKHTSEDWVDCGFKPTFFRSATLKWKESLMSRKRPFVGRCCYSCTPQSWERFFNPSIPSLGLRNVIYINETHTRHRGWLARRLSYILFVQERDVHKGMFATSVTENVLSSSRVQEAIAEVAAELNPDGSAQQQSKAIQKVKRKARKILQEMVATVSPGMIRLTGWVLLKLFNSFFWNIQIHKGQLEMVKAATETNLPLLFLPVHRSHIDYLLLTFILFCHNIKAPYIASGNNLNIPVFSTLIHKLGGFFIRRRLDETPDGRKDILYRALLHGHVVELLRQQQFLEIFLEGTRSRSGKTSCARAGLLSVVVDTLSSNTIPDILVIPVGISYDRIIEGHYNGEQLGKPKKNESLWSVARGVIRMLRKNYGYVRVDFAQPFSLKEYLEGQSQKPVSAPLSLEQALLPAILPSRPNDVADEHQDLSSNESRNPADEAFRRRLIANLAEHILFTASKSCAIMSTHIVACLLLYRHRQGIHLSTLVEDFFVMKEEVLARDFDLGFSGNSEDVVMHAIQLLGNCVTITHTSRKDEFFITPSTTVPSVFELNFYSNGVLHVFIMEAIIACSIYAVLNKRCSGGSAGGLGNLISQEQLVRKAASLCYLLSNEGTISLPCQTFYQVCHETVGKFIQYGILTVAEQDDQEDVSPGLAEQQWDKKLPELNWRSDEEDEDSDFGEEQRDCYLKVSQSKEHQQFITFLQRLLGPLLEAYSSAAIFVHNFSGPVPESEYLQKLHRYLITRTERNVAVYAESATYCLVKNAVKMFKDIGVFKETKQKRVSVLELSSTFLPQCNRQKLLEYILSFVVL", "assay": "FRET or BRET; FRET-FLIM in live HepG2 cells co-transfected with donor (mEGFP/EGFP fusion) and acceptor (mCherry fusion), lipid loaded overnight with 0.8 mM oleate:palmitate (2:1); donor fluorescence lifetime with and without acceptor"}}, "note": "These are yes or no findings as the source states them, for the method shown. In cells and extracts the contact can be indirect. Some entries that bind do so weakly or less than the wild type. Where a sequence is shown, tags or fusion partners need not be part of it."}
{"binder": "B1", "values": [{"measurement": "binding", "setting": "[1]", "result": "binds"}, {"measurement": "binding", "setting": "[2]", "result": "binds"}, {"measurement": "binding", "setting": "PLIN3-mCherry (mouse)", "result": "no binding"}, {"measurement": "binding", "setting": "PLIN2-mCherry (mouse)", "result": "no binding"}, {"measurement": "binding", "setting": "[3]", "result": "binds"}, {"measurement": "binding", "setting": "[4]", "result": "binds"}]}
{"binder": "B2", "values": [{"measurement": "binding", "setting": "GPAT4-EGFP (mouse)", "result": "no binding"}, {"measurement": "binding", "setting": "GPAT1-EGFP (mouse)", "result": "no binding"}]}
